Hit rate of the full screen: of about 310,000 compounds, about 14,000 (4.5%) showed an effect of 50% or more. The effect is printed as a negative number. Some of the results follow.
What follows are compounds tested against human ether-à-go-go-related gene (hERG) potassium channel (human, UniProt Q12809) (assay: primary screen, population patch clamp on CHO cells stably expressing hERG).
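Note: peak tail current of the secondary pulse compared with the same well before compound.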

Chain of human ether-à-go-go-related gene (hERG) potassium channel (Q12809 whole entry, looked up): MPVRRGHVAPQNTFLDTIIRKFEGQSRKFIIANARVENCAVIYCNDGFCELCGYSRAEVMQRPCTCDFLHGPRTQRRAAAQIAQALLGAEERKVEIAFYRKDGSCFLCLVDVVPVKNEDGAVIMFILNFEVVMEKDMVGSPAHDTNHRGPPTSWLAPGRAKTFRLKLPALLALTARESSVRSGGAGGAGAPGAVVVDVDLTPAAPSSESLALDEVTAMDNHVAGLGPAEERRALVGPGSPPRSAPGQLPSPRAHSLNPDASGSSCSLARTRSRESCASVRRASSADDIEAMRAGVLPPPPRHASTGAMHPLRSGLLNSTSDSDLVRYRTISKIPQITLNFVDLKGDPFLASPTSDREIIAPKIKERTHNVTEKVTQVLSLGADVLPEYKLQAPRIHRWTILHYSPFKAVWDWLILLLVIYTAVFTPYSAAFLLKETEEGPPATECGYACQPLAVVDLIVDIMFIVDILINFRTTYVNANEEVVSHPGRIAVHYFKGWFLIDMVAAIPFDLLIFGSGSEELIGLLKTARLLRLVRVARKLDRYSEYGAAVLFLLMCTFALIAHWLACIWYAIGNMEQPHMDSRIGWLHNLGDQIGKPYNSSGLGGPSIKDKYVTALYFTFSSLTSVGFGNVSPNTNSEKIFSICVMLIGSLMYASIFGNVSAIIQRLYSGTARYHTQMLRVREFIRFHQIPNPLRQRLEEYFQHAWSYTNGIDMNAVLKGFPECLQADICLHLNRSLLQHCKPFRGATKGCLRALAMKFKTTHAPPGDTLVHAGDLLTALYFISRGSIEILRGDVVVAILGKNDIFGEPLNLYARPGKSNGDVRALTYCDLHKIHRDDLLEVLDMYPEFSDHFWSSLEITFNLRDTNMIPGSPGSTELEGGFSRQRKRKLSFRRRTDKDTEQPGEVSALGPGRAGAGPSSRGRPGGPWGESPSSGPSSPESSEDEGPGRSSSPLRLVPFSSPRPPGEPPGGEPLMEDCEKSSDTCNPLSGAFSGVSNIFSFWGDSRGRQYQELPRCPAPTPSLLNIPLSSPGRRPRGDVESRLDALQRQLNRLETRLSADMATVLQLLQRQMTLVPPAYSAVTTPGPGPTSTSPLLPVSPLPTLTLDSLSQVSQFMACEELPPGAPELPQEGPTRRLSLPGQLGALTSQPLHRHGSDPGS

Row | SMILES | hERG current change (%, negative = inhibition) at 10uM
1 | CCOC(=O)c1ccccc1NC(=S)N1CCC(N2CCCCC2)CC1 | -33.8%
2 | O=C1CSC2=NCN(c3ccccc3)CN12 | 20.3%
3 | Fc1cccc(-c2cc3nc4c(c(N5CCOCC5)n3n2)CCCC4)c1 | -24.1%
4 | COc1cccc(NC(=O)CNC(=O)c2ccc([N+](=O)[O-])cc2)c1 | -11.4%
5 | COc1cccc(S(=O)(=O)N2CCN(C(=O)c3ccco3)CC2)c1 | 9.1%
6 | CC(C)NC(=O)COc1ccc(Cl)cc1Cl | 2.51%
7 | Cc1ccc(CN2CCN(Cc3nc4c(s3)CCCC4)CC2CCO)cc1 (stereo not shown) | -55.3%
8 | O=C1CCCCCN1Sc1ccccc1 | 12%
9 | Cc1c2cnn(CC(=O)N3CCC4(CC3)OCCO4)c(=O)c2c(C)n1Cc1ccccc1F | 6.7%
10 | CC(=O)c1ccc(Nc2ncnc3c2oc2ccccc23)cc1 | 7.05%
11 | Cc1cccc(-n2nc3c(c2NC(=O)c2ccco2)CS(=O)(=O)C3)c1C | -17.6%
12 | C[C@]12CC[C@@H]3c4ccc(O)cc4CC[C@H]3[C@@H]1CC[C@@H]2OC(=O)CCC1CCCC1 | 14%
13 | O=S(=O)(c1ccc(OCc2nc3ccccc3s2)c(Cl)c1)N1CCOCC1 | -6.73%
14 | CCn1nnnc1NCc1ccc(N2CCCC2)cc1 | 3.6%
15 | COc1ccc(-n2c(COc3cccc4ccccc34)nnc2SCC(=O)NCc2ccco2)cc1 | -21%
16 | Cc1cc(C)c(S(=O)(=O)N2CCCCCC2)cc1Br | 7.45%
17 | CNC(=O)COc1coc(CN2CCN(c3cccc(Cl)c3)CC2)cc1=O | 1.16%
18 | CCCCN1C(=N)C(CC)(CC)C(=O)NC1=O.Cl | 29.6%
19 | CCCC(=O)Nc1cc(=O)n(C)c(=O)n1C | 0.627%
20 | Br.COc1ccc(-c2cn3cc(Cl)ccc3n2)cc1OC | 8.12%
21 | Cc1csc(NC(=O)CSc2nnc(NC(=O)NC(C)(C)C)s2)n1 | 6.74%
22 | O=C1c2ccccc2C(=O)N1Cc1nc2ccccc2c(=O)n1-c1ccc(Br)cn1 | -44.5%

Row | SMILES | hERG current change (%, negative = inhibition) at 10uM
23 | COc1ccc(NC(=O)c2oc3ccccc3c2NC(=O)C2CC2)cc1OC | -6.88%
24 | O=C(NCCCN1CCCC1=O)c1cccc(C(F)(F)F)c1 | -3%
25 | CCN(CC)C(=O)C1CCN(Cc2ccc(OCc3ccccc3)cc2)CC1.O=C(O)C(=O)O | -48.7%
26 | Cc1ccc[n+](CC(=O)/C=C2\N(C)c3ccccc3C2(C)C)c1.[Cl-] | -1.13%
27 | CCCCCCC[n+]1ccc(-c2cc[n+](CCCCCCC)cc2)cc1.[I-] | 9.12%
28 | Clc1ccc(C2NCCc3sccc32)cc1 (stereo not shown) | -6.6%
29 | COC(=O)C1=C(c2ccc(OC)c(OC)c2)C[C@@H]2CC[C@H]1N2C(=O)N1CCCCC1 | 11.2%
30 | O=C(NCC1CCN(c2ccc(S(=O)(=O)N3CCOCC3)cc2)CC1)Nc1ccccc1F | -16.7%
31 | O=C(c1ccccc1)c1ccccc1C(=O)c1ccccc1 | -6.01%
32 | CC(C)C1C(C#N)=C(N)Oc2n[nH]c(-c3cccs3)c21 (stereo not shown) | 8.19%
33 | O=c1c([N+](=O)[O-])c(O)c2cccc3c2n1CCC3 | 29.8%
34 | Cc1nn(C)cc1C(=O)Nc1c(C)nn(Cc2ccccc2Cl)c1C | 5.51%
35 | COc1ccc(C)cc1S(=O)(=O)Nc1cccc(-c2cn3cccnc3n2)c1 | 2.69%
36 | COc1ccc(OCC(=O)Nc2c3c(nn2-c2ccccc2)CS(=O)(=O)C3)cc1 | -1.88%
37 | COc1cccc(C(=O)Nc2cc3c4c(c2)CC(=O)N4CCC3)c1 | 7.04%
38 | CCOC(=O)Cn1c(=O)oc2cc(S(=O)(=O)Nc3cc(OCC)ccc3OCC)ccc21 | -42.3%
39 | NC(=O)COc1ccc2c3c(c(=O)oc2c1)CCCCC3 | -4.98%
40 | O=C(Cc1ccccc1Cl)Nc1cccc(S(=O)(=O)N2CCCCCC2)c1 | -18.3%
41 | C[C@@H]1C=C(C(=O)O)O[C@H](OCc2ccc(CO)cc2)C1 | -20.5%
42 | O=C(c1ccc([N+](=O)[O-])s1)N1CCN(c2ccccc2)CC1 | -25.8%
43 | COc1c(C)cc(Br)cc1C(=O)O | 1.82%
44 | CSCCC(NC(=O)CCC(=O)OCC(=O)[C@@]1(O)CCC2[C@@H]3CCC4=CC(=O)C=C[C@]4(C)C3[C@@H](O)C[C@@]21C)C(=O)O (stereo partly shown) | 14.9%

Row | SMILES | hERG current change (%, negative = inhibition) at 10uM
45 | NS(=O)(=O)c1ccc(CCNC(=O)c2coc3ccccc3c2=O)cc1 | -6.49%
46 | Cc1cc(C(=O)NCC(c2ccco2)N2CCCC2)c2ccccc2n1 (stereo not shown) | 6.54%
47 | CC(=O)N1c2ccccc2[C@H](C)[C@H]1C | 6.54%
48 | N/C(Cn1cncn1)=N\NC(=O)c1ccc(Cl)cc1Cl | 7.11%
49 | Cc1cccc(N=Cc2c(O)n(-c3ccccc3C)c(=O)[nH]c2=O)c1 | -5.15%
50 | Cc1[nH]c(=S)c(C#N)c(C)c1Cc1ccc(Cl)cc1Cl | 22.2%
51 | CC(C)Oc1cc(O)c2c(=O)c(-c3ccc(O)cc3)coc2c1 | 13.1%
52 | Cc1noc(C)c1S(=O)(=O)N1CCC(C(=O)N(C)Cc2ccccc2)CC1 | -4.83%
53 | O=C(NCCCn1ccnc1)Nc1ccc(Cl)cc1 | -14.2%
54 | Cc1ccc(NC(=O)Nc2ccc3c(c2)CCC3)cc1C | -22.8%
55 | CC1CCCC(C)N1C(=O)COC(=O)Cc1ccc(Cl)cc1 (stereo not shown) | 2.54%
56 | COc1ccc(NC(C)=O)cc1NC(=O)CSc1nnc(-c2ccc(F)cc2)n1N | 2.05%
57 | N#CC(NC(=O)OCc1ccccc1)c1ccccc1 (stereo not shown) | -3.2%
58 | CC(C)(C)C1CCc2c(sc(NC(=O)c3cccs3)c2C(N)=O)C1 (stereo not shown) | 15.2%
59 | OCC[C@H]1C[C@H](O)[C@@H](O)[C@@]2(CCc3ccccc3O2)O1 | -6.43%
60 | COc1cccc(NS(=O)(=O)c2ccc(C)c(C(=O)N3CCCCC3)c2)c1 | -19.8%
61 | Cc1ccc2cccc(NS(=O)(=O)c3ccccc3)c2n1 | 7.02%
62 | COc1ccc(C2CC(O)(c3ccccc3)Oc3cc(OC)c(OC)c(OC)c32)cc1 (stereo not shown) | -3.75%
63 | O=C(NCc1ccco1)c1cccc(Br)c1 | 5.56%
64 | CC1(C)CC(=O)C=C(NCCc2ccc(S(N)(=O)=O)cc2)C1 | -9.57%
65 | CN(c1ccc(O)cc1)S(=O)(=O)c1ccc2ccccc2c1 | -12.8%
66 | COc1cccc(C(=O)Nc2ccc(Cl)c(C(F)(F)F)c2)c1 | -21.3%

Row | SMILES | hERG current change (%, negative = inhibition) at 10uM
67 | Cn1c(CNC(=O)c2ccc3c(c2)OCO3)nnc1SCC(=O)Nc1ccc(F)cc1 | -7.22%
68 | O=C(COC(=O)Cc1cccs1)Nc1ccccc1 | -9.89%
69 | Cc1cc(C)n(CCC(=O)N/N=C/c2c(O)ccc3ccccc23)n1 | -4.47%
70 | O=C(Oc1ccccc1)N1CCN(c2ccccc2F)CC1 | -18.1%
71 | CCOc1ccc(C(=O)CSc2nnc3ccccn23)cc1 | -8.67%
72 | Cc1c(NC(=O)c2ccc3c(c2)OCO3)cccc1-c1nc2ccccc2s1 | 12.7%
73 | Nc1ccc(C(=O)[O-])c(O)c1.[Na+] | 16.6%
74 | CN(C(=O)COC(=O)c1ccc2c(c1)NC(=O)CS2)C1CCS(=O)(=O)C1 (stereo not shown) | 31.3%
75 | CC(=O)Nc1ccc(S(=O)(=O)N2CCN(CCc3ccccc3)CC2)cc1 | -24%
76 | Cc1ccc(NC(=O)CSc2ccc(-c3ccc(-n4cccn4)cc3)nn2)c(C)c1 | 3.71%
77 | Cc1ccccc1OCC(=O)Nc1cccc2nsnc12 | -5.51%
78 | COc1ccc(N2CCN(CC(=O)Nc3nnc(-c4ccccc4)s3)CC2)cc1 | -3.81%
79 | COc1ccc(OC)c(S(=O)(=O)NC2CCN(Cc3ccccc3)CC2)c1 | -4.92%
80 | Cc1ccc(CS(=O)Cc2ccc(C(=O)NC3CCCCCC3)o2)cc1 (stereo not shown) | 8.98%
81 | CCC(C)c1ccc(S(=O)(=O)N2CCN(C(C)C(=O)NC3CCCC3)CC2)cc1 (stereo not shown) | -79.1%
82 | CCCCC(=O)Nc1ccc(NC(=O)c2ccc([N+](=O)[O-])cc2)cc1OC | -10.6%
83 | CCCCc1c(C)[nH]c(=S)[nH]c1=O | 16.6%
84 | CC(=O)N1CCc2cc(C(=O)CN3CCN(c4cccc(Cl)c4)CC3)ccc21 | -0.529%
85 | O=C(CN1CCOCC1)N/N=C/C=C/c1ccccc1 | -26.3%
86 | C#CCOCCOCCOCCNc1nc(N2CCN(C(=O)[C@H]([C@@H](C)CC)n3cc([C@@H](N)CC(C)C)nn3)CC2)nc(N2CCN(C(=O)[C@H](Cc3cc4ccccc4[nH]3)n3cc([C@@H](N)Cc4ccc(O)cc4)nn3)CC2)n1.Cl | 7.83%
87 | COc1ccc(OCC(O)CN(C)C(=O)/C=C/c2cccc([N+](=O)[O-])c2)cc1 (stereo not shown) | -80.5%
88 | CN(c1ccccc1C(=O)Nc1ccc(S(=O)(=O)N2CCOCC2)cc1)S(=O)(=O)c1ccccc1 | -2.58%

— paper PMC4336329 (PLoS ONE, 2015)
